“And” between values parts separate entries of the source, which are not always exact repeats. Equal entries are not always repeated. Screen size: about 420,000 compounds; about 64,000 (15%) were called active. This list was built around the results that the source calls inconclusive (neither active nor inactive); the mix of calls is not that of the screen. Calls come from the whole dose curve; as a rule, active = well fitted inhibition curve with a large enough effect; inconclusive = small, poorly fitted or top-dose-only effect; inactive = flat fitted curve, though single readings scatter. Potencies beside an inconclusive call are fits to weak or partial responses and may not hold up.
Experiment: qHTS for Inhibitors of human tyrosyl-DNA phosphodiesterase 1 (TDP1): qHTS in cells in absence of CPT; note: nearly all actives have a fitted effect of over 55% in size
Conditions: DT40 Tdp1-/- hTDP1 cells, no CPT, ATP luminescence, 48 h; activity change, negative = growth inhibition: at 46.2 µM (top of the series) unless noted
In short: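 Chicken DT40 Tdp1-/- cells complemented with human TDP1, screened without camptothecin (DMSO vehicle only), 400 cells/well. Compounds pin-transferred, cells incubated at 37 °C for at least 48 hr. Growth read as ATP-dependent luminescence (CellTiter-Glo, 30 min at RT).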
% is set by controls: 0 for no effect and ±100 for the full control effect; potency is the fitted concentration of half-maximal effect; tags give direction and shape of the fitted curve.

With `COc1ccc(OC)c(S(=O)(=O)ON2C(=O)c3ccccc3C2=O)c1` as the compound, how does the Potency read?
The Potency was active: 1.46 µM.

Which Potency does the source give for `O=C(c1ccccc1)N1N=C(c2ccccc2)CC1c1cccs1` (centres undefined) here?
Its Potency is inconclusive: 29.1 µM [inhibitor, single point].

Which Potency does the source give for `CC1CC(C)(C)NC(=S)N1CCC(=O)Nc1ccc2c(c1)OCCO2` (centres undefined) here?
The Potency was inconclusive: 23.1 µM [inhibitor, single point].

For `COc1ccc(CN2C(=O)C(C)=C(C)C2OC)cc1` (centres undefined), which Potency is on record?
The Potency was inconclusive: 11.6 µM [inhibitor, partial curve].

For `CCOC(=O)C1(C)CCCN(C(=O)c2ccc(C#N)cc2)C1` (centres undefined), which Potency is on record?
The Potency was “inactive”.

For `CCCCOc1ccc(CSC(CC(=O)O)C(=O)O)cc1` (centres undefined), which Potency is on record?
Its Potency is “inactive”.

With `CSc1ccc(/C=N/N(C)S(=O)(=O)c2ccc(C)cc2)cc1` as the compound, how does the Potency read?
The Potency was active: 7.31 µM.

For `COc1ccc(Cc2nc3ccc(C(=O)NCCc4ccccc4)cc3o2)cc1`, which Potency is on record?
The Potency was inconclusive: 13 µM [inhibitor, partial curve, poor fit].

For `O=C(c1ccccc1)N1N=C(c2ccccc2)CC1(O)C(F)(F)F` (centres undefined), which Potency is on record?
The Potency was “inactive”.

Which Potency does the source give for `Cc1ccc(-c2nn3c(=O)cc(CN4CCN(S(=O)(=O)c5ccc(Cl)cc5)CC4)nc3s2)cc1` here?
Its Potency is inconclusive: 7.31 µM [inhibitor, partial curve].

With `COc1ccc(CNC(=O)c2ccc3c(c2)CCN3S(=O)(=O)c2ccc(Cl)cc2)cc1` as the compound, how does the Potency read?
Its Potency is active: 16.4 µM.

For `O=C(COc1ccc(F)cc1)NC1CC(=O)N(c2ccc3c(c2)OCCO3)C1` (centres undefined), which Potency is on record?
The Potency was “inactive”.

For `COc1cc2ccnc(C=O)c2cc1OC`, which Potency is on record?
The Potency was active: 2.59 µM.

For `CC(C)(C)c1ccc(-n2ncc3c2CCCC3NC(=O)CN2CCCCC2=O)cc1` (centres undefined), which Potency is on record?
The Potency was inconclusive: 13 µM [inhibitor, partial curve].

For `COc1cccc(NC(=O)C2CCN(c3cc(C)nc4c(-c5ccc(Cl)cc5)c(C)nn34)CC2)c1`, which Potency is on record?
Its Potency is “inactive”.

With `C=CCNc1nc(NCCCN2CCCC2=O)c2sc(-c3ccccc3)cc2n1` as the compound, how does the Potency read?
Its Potency is active: 20.6 µM.

For `CC(C)CCNC(=O)c1sc2ccc(S(=O)(=O)N3CCCCC3)cc2c1N`, which Potency is on record?
The Potency was active: 20.6 µM.

Which Potency does the source give for `CCOC(=O)c1ccc(-c2c(-c3ccc4c(c3)OCO4)noc2-c2ccsc2)cc1F` here?
Its Potency is inconclusive: 12.6 µM [inhibitor, partial curve] and inconclusive: 16.4 µM [inhibitor, single point].

For `COCCCNc1nc2c(-c3ccc(Cl)cc3)nnn2c2ccccc12`, which Potency is on record?
Its Potency is “inactive”.

Which Potency does the source give for `CC(=O)Nc1ccc(NC(=O)Cn2c(=O)ccc3cc(S(=O)(=O)N4CCC(C)CC4)ccc32)cc1` here?
The Potency was inconclusive: 6.51 µM [inhibitor, single point].

Which Potency does the source give for `COc1cc2nc(SCC(=O)Nc3cccc(C)c3)n3nc(CCn4c(C)nc5ccccc54)nc3c2cc1OC` here?
The Potency was active: 2.59 µM.

With `Cc1ccc(NC(=O)Nc2ccc3oc(C)nc3c2)cc1` as the compound, how does the Potency read?
Its Potency is “inactive”.

Which Potency does the source give for `CCOc1ccc(OCC)c(NS(=O)(=O)c2ccc3[nH]c(=O)ccc3c2)c1` here?
Its Potency is “inactive”.

For `CC(=O)Nc1ccc(S(=O)(=O)Nc2cccc(N(C)S(C)(=O)=O)c2)cc1`, which Potency is on record?
Its Potency is inconclusive: 9.2 µM [inhibitor, partial curve, poor fit].

For `O=C(Nc1ncccn1)c1ccc([N+](=O)[O-])cc1[N+](=O)[O-]`, which activity change, negative = growth inhibition is on record?
Its activity change, negative = growth inhibition is inconclusive: -31.6% [inhibitor].

For `CCCn1nc(NC(=O)COC)c2cc3cc(C)ccc3nc21`, which Potency is on record?
Its Potency is “inactive”.

For `O=C(Nc1ccc(N2CCN(C(=O)c3ccco3)CC2)cc1)c1cccs1`, which Potency is on record?
The Potency was “inactive”.

With `CN(C)/C=N/C(=S)Nc1ccc(Cl)cc1` as the compound, how does the activity change, negative = growth inhibition read?
Its activity change, negative = growth inhibition is inconclusive: -17.6% [inhibitor].

Which Potency does the source give for `CCN(CC)C(=O)c1sc(N2C(=O)Nc3ccccc3N2O)c(C(=O)OC)c1C` here?
Its Potency is “inactive”.

For `COc1cc(/C=N/NC(=O)c2ccc(-n3cccc3)cc2)ccc1O`, which Potency is on record?
Its Potency is inconclusive: 11.6 µM [inhibitor, partial curve].

With `CCCCOc1nc2ccccc2nc1NS(=O)(=O)c1ccc(F)cc1` as the compound, how does the Potency read?
Its Potency is “inactive”.

With `Cc1ccc(NC(=O)COC(=O)COc2ccc3ccc(=O)oc3c2)cc1[N+](=O)[O-]` as the compound, how does the Potency read?
The Potency was “inactive”.

Which Potency does the source give for `C=CCCCCCCCCCCCc1ccco1` here?
The Potency was inconclusive: 29.1 µM [inhibitor, single point].

With `Cc1cc(C)cc(NC(=O)Nc2ccc3c(c2)CCC3)c1` as the compound, how does the Potency read?
Its Potency is inconclusive: 18.4 µM [inhibitor, single point].

Which Potency does the source give for `COC(=O)C[C@H]1c2cc(C(F)(F)F)ccc2S(=O)(=O)N1C1CCCCC1` here?
The Potency was inconclusive: 22.4 µM [inhibitor, single point].

With `COc1ccc(NC(C)C(=O)N/N=C/c2ccc([N+](=O)[O-])s2)cc1` (centres undefined) as the compound, how does the Potency read?
Its Potency is active: 23.1 µM.

Which Potency does the source give for `COc1ccc(C(=O)Nc2ccc(NC(=O)c3ccccc3)cc2)cc1S(=O)(=O)N1CCOCC1` here?
The Potency was inconclusive: 9.2 µM [inhibitor, partial curve].

Which Potency does the source give for `Cc1occc1-c1nnc(SCC(=O)c2c(N)n(Cc3ccccc3)c(=O)n(C)c2=O)n1C` here?
The Potency was “inactive”.

With `O=C1C=C(c2cccc(Cl)c2O)C[C@@H](c2ccc3c(c2)OCO3)C1` as the compound, how does the Potency read?
The Potency was inconclusive: 29.1 µM [inhibitor, single point].

With `O=C(O)/C(=C1/OC(=O)c2ccccc21)c1ccccc1` as the compound, how does the Potency read?
The Potency was inconclusive: 13 µM [inhibitor, partial curve].

With `O=C(Cn1ccc2ccccc2c1=O)N1CCN(c2cccc(Cl)c2)CC1` as the compound, how does the Potency read?
Its Potency is inconclusive: 29.1 µM [inhibitor, single point].

For `Cc1cccc(-n2c(C)nnc2SCC(=O)NC(C)c2ccco2)c1` (centres undefined), which Potency is on record?
The Potency was “inactive”.

With `COc1ccccc1N1CCN(C(=O)Cn2c(=O)n3nc(-c4cccc(C)c4)nc3c3ccccc32)CC1` as the compound, how does the Potency read?
Its Potency is inconclusive: 0.231 µM [inhibitor, full curve, poor fit].

With `Cc1ccc(Nc2sc(C(=O)c3ccccc3)c(N)c2S(=O)(=O)c2ccccc2)c(C)c1` as the compound, how does the Potency read?
The Potency was active: 14.6 µM.

Which Potency does the source give for `Cc1cccc(NC(=O)Nc2ccccc2[N+](=O)[O-])n1` here?
The Potency was “inactive”.

With `COc1ccc2[nH]c3c(=O)n(CCCC(=O)NC4CCCCC4C)c(=S)[nH]c3c2c1` (centres undefined) as the compound, how does the Potency read?
The Potency was inconclusive: 8.2 µM [inhibitor, partial curve].

For `CCn1c(=O)n(CC)c2cc(N3CCCC3)c(NC(=O)c3cccc(Cl)c3)cc21`, which Potency is on record?
The Potency was active: 9.2 µM.

With `COc1ccc(/C=C/C(=O)Nc2ccc(S(=O)(=O)N3CCOCC3)cc2)c(OC)c1` as the compound, how does the Potency read?
The Potency was active: 18.4 µM.

Which Potency does the source give for `CC(=O)c1c(C)[nH]c(=S)c(C#N)c1-c1ccc(F)cc1` here?
The Potency was “inactive”.

For `O=C1[C@H](Oc2ccccc2)[C@@H](c2ccccc2)N1c1ccncc1`, which Potency is on record?
Its Potency is active: 23.1 µM.

Which Potency does the source give for `Cc1ccc(-c2nc(NCCCO)c3ccccc3n2)cc1` here?
Its Potency is inconclusive: 23.1 µM [inhibitor, single point].

Which Potency does the source give for `Cc1ccc(NC(=O)CC2=NC(=O)C(CC(=O)Nc3ccccc3F)S2)cc1` (centres undefined) here?
The Potency was active: 18.4 µM.

Which Potency does the source give for `CC1CC2(CC(C)(C(=O)CSc3n[nH]c(-c4ccccc4Cl)n3)OC2=O)C(=O)O1` (centres undefined) here?
Its Potency is “inactive”.

With `O=C(COC(=O)c1c[nH]c2ccccc12)Nc1ccc([N+](=O)[O-])cc1` as the compound, how does the Potency read?
The Potency was inconclusive: 29.1 µM [inhibitor, single point].

Which Potency does the source give for `Cc1c(C(=O)NC2CCCC2)oc2ccccc12` here?
The Potency was “inactive”.

For `Cc1ccc(S(=O)(=O)N2CCC(C(=O)Nc3ccc(Oc4ccccc4)cc3)CC2)cc1`, which Potency is on record?
Its Potency is inconclusive: 1.3 µM [inhibitor, partial curve].

Which Potency does the source give for `Cc1cccc(C)c1NC(=O)Nc1nc(CN(C)C)cs1` here?
The Potency was “inactive”.

For `CC(C)Cn1c(=O)c2ccccc2n2c(CCC(=O)Nc3ccc(F)c(F)c3)nnc12`, which Potency is on record?
Its Potency is inconclusive: 25.9 µM [inhibitor, single point].

Which Potency does the source give for `COc1cccc(C2=NOC(C(=O)Nc3ccc4c(c3)OCO4)C2)c1` (centres undefined) here?
The Potency was “inactive”.

For `CCN(C(=O)Cn1nc(Cc2ccncc2)c2ccccc2c1=O)c1cccc(C(F)(F)F)c1`, which Potency is on record?
The Potency was inconclusive: 25.9 µM [inhibitor, single point].

Which Potency does the source give for `COc1ccc2c(C)c(CCC(=O)NC3CC3)c(=O)oc2c1` here?
Its Potency is inconclusive: 29.1 µM [inhibitor, single point].

Which Potency does the source give for `O=C(NCCN1CCOCC1)c1ccc2ccccc2c1` here?
Its Potency is “inactive”.

With `CN(CC(=O)Nc1ccccc1Cl)C(=O)COC(=O)c1nc(Cl)c(Cl)c(Cl)c1Cl` as the compound, how does the activity change, negative = growth inhibition read?
The activity change, negative = growth inhibition was inconclusive: -33.9% [inhibitor].

With `CCN1C(=O)C2(C(C#N)=C(N)Oc3n[nH]c(C(C)C)c32)c2ccccc21` (centres undefined) as the compound, how does the Potency read?
The Potency was “inactive”.

With `CC(=O)c1ccc(S(=O)(=O)Nc2cccc(-n3cnnn3)c2)cc1` as the compound, how does the Potency read?
Its Potency is “inactive”.

With `O=C(Cn1cc(S(=O)(=O)Cc2ccccc2F)c2ccccc21)NCc1ccccc1Cl` as the compound, how does the Potency read?
Its Potency is inconclusive: 29.1 µM [inhibitor, single point].

Which Potency does the source give for `Cc1cc(C)cc(NC(=O)CN2C(=O)CCc3cc(S(=O)(=O)N4CCCCC4)ccc32)c1` here?
The Potency was inconclusive: 16.4 µM [inhibitor, single point].

With `COc1ccc(Cl)cc1C(=O)Nc1ccc(CN2CCCCC2)cc1` as the compound, how does the Potency read?
Its Potency is inconclusive: 29.1 µM [inhibitor, single point].

With `NC(Cc1ccccc1)c1csc(Nc2nncc3ccccc23)n1` (centres undefined) as the compound, how does the Potency read?
Its Potency is active: 23.1 µM.

Which Potency does the source give for `Cc1ccc(CN2[C@H](C)[C@H](c3ccccc3)OCCS2(=O)=O)cc1` here?
The Potency was inconclusive: 35.5 µM [inhibitor, single point].

Which Potency does the source give for `CCOC(=O)c1c(NC(=O)C(C)Oc2ccc(Cl)c(C)c2)sc2c1CCCC2` (centres undefined) here?
The Potency was inconclusive: 20.6 µM [inhibitor, single point].

Which Potency does the source give for `COc1ccc(N2CC(C(=O)N3CCN(c4ccccc4)CC3)CC2=O)cc1` (centres undefined) here?
Its Potency is inconclusive: 18.4 µM [inhibitor, single point].

With `CC(C)CSc1ccccc1NC(=O)c1sc2nc(-c3ccncc3)ccc2c1N` as the compound, how does the Potency read?
The Potency was active: 7.31 µM.

With `N#CCC1c2ccccc2CCN1C(=O)Nc1cccc(Cl)c1` (centres undefined) as the compound, how does the activity change, negative = growth inhibition read?
Its activity change, negative = growth inhibition is inconclusive: -35.8% [inhibitor].
